# From the supplement of paper PMC8728848
# The other results are listed elsewhere or left out.
# Columns and labels:
# Assay in all cases: glycan array binding signal (z-score within array); higher = stronger binding
# Details in all cases: glycan notation: IUPAC condensed, linker removed
# [1] = target: Fuc(a1-2)Gal(b1-4)[Fuc(a1-3)]GlcNAc
# Outline: (§1)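 Glycan array data came from 3228 arrays in the Consortium for Functional Glycomics database, and only arrays with an available protein sequence were kept. Glycan names were put into IUPAC-condensed notation, and columns mapping to the same glycan were averaged. The binding signal is a within-array Z-score, averaged across arrays of one protein sequence run at different concentrations or buffers and across linkers. A negative Z-score can be read as non-binding.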
# [2] = target: Fuc(a1-2)Gal(b1-4)[Fuc(a1-3)]GlcNAc(b1-2)Man(a1-3)[Fuc(a1-2)Gal(b1-4)[Fuc(a1-3)]GlcNAc(b1-2)Man(a1-6)]Man(b1-4)GlcNAc(b1-4)[Fuc(a1-6)]GlcNAc
# Outline: as §1
# [3] = target: Fuc(a1-2)Gal(b1-4)[Fuc(a1-3)]GlcNAc(b1-2)[Fuc(a1-2)Gal(b1-4)[Fuc(a1-3)]GlcNAc(b1-4)]Man(a1-3)[Fuc(a1-2)Gal(b1-4)[Fuc(a1-3)]GlcNAc(b1-2)Man(a1-6)]Man(b1-4)GlcNAc(b1-4)GlcNAc
# Outline: as §1
# [4] = target: Fuc(a1-2)Gal(b1-4)[Fuc(a1-3)]GlcNAc(b1-3)Gal(b1-4)[Fuc(a1-3)]GlcNAc
# Outline: as §1
# [5] = target: Fuc(a1-2)Gal(b1-4)[Fuc(a1-3)]GlcNAc(b1-3)Gal(b1-4)[Fuc(a1-3)]GlcNAc(b1-3)Gal(b1-4)[Fuc(a1-3)]GlcNAc
# Outline: as §1
# [6] = target: Fuc(a1-2)Gal(b1-4)[Fuc(a1-3)]GlcNAc(b1-3)GalNAc
# Outline: as §1
# [7] = target: Fuc(a1-2)Gal(b1-4)[Fuc(a1-3)]GlcNAc(b1-3)[Neu5Ac(a2-6)Gal(b1-4)GlcNAc(b1-6)]Gal(b1-4)Glc
# Outline: as §1
# [8] = target: Fuc(a1-2)Gal3S(b1-4)GlcNAc
# Outline: as §1
# [9] = target: Fuc(a1-2)Gal6S(b1-3)GlcNAc
# Outline: as §1
# [10] = target: Fuc(a1-2)Gal6S(b1-3)GlcNAc6S
# Outline: as §1
# Fuc(a1-2)Gal6S(b1-4)Glc = target: Fuc(a1-2)Gal6S(b1-4)Glc
# Outline: as §1
# [11] = target: Fuc(a1-2)Gal6S(b1-4)Glc6S
# Outline: as §1
# Fuc(a1-2)[Gal(a1-3)]Gal = target: Fuc(a1-2)[Gal(a1-3)]Gal
# Outline: as §1
# [12] = target: Fuc(a1-2)[Gal(a1-3)]Gal(b1-3)GalNAc
# Outline: as §1
# [13] = target: Fuc(a1-2)[Gal(a1-3)]Gal(b1-3)GalNAc(b1-3)Gal(a1-4)Gal(b1-4)Glc
# Outline: as §1
# [14] = target: Fuc(a1-2)[Gal(a1-3)]Gal(b1-3)GlcNAc
# Outline: as §1
# [15] = target: Fuc(a1-2)[Gal(a1-3)]Gal(b1-3)GlcNAc(b1-2)Man(a1-3)[Fuc(a1-2)[Gal(a1-3)]Gal(b1-3)GlcNAc(b1-2)Man(a1-6)]Man(b1-4)GlcNAc(b1-4)GlcNAc
# Outline: as §1
# [16] = target: Fuc(a1-2)[Gal(a1-3)]Gal(b1-3)GlcNAc(b1-2)Man(a1-3)[Fuc(a1-2)[Gal(a1-3)]Gal(b1-3)GlcNAc(b1-2)Man(a1-6)]Man(b1-4)GlcNAc(b1-4)[Fuc(a1-6)]GlcNAc
# Outline: as §1
# [17] = target: Fuc(a1-2)[Gal(a1-3)]Gal(b1-3)GlcNAc(b1-3)GalNAc
# Outline: as §1
# [18] = target: Fuc(a1-2)[Gal(a1-3)]Gal(b1-3)GlcNAc(b1-6)GalNAc
# Outline: as §1
# [19] = target: Fuc(a1-2)[Gal(a1-3)]Gal(b1-4)Glc
# Outline: as §1
# [20] = target: Fuc(a1-2)[Gal(a1-3)]Gal(b1-4)GlcNAc
# Outline: as §1
# [21] = target: Fuc(a1-2)[Gal(a1-3)]Gal(b1-4)GlcNAc(b1-2)Man
# Outline: as §1
# [22] = target: Fuc(a1-2)[Gal(a1-3)]Gal(b1-4)GlcNAc(b1-2)Man(a1-3)[Fuc(a1-2)[Gal(a1-3)]Gal(b1-4)GlcNAc(b1-2)Man(a1-6)]Man(b1-4)GlcNAc(b1-4)GlcNAc
# Outline: as §1
# [23] = target: Fuc(a1-2)[Gal(a1-3)]Gal(b1-4)GlcNAc(b1-2)Man(a1-3)[Fuc(a1-2)[Gal(a1-3)]Gal(b1-4)GlcNAc(b1-2)Man(a1-6)]Man(b1-4)GlcNAc(b1-4)[Fuc(a1-6)]GlcNAc
# Outline: as §1
# [24] = target: Fuc(a1-2)[Gal(a1-3)]Gal(b1-4)GlcNAc(b1-3)GalNAc
# Outline: as §1
# [25] = target: Fuc(a1-2)[Gal(a1-3)]Gal(b1-4)GlcNAc(b1-3)[Fuc(a1-2)[Gal(a1-3)]Gal(b1-4)GlcNAc(b1-6)]GalNAc
# Outline: as §1
# [26] = target: Fuc(a1-2)[Gal(a1-3)]Gal(b1-4)GlcNAc(b1-6)GalNAc
# Outline: as §1
# [27] = target: Fuc(a1-2)[Gal(a1-3)]Gal(b1-4)[Fuc(a1-3)]Glc
# Outline: as §1
# [28] = target: Fuc(a1-2)[Gal(a1-3)]Gal(b1-4)[Fuc(a1-3)]GlcNAc
# Outline: as §1
# [29] = target: Fuc(a1-2)[Gal(a1-3)]Gal(b1-4)[Fuc(a1-3)]GlcNAc(b1-3)GalNAc
# Outline: as §1
# [30] = target: Fuc(a1-2)[Gal(a1-4)]Gal(b1-4)GlcNAc
# Outline: as §1
# [31] = target: Fuc(a1-2)[GalNAc(a1-3)]Gal
# Outline: as §1
# [32] = target: Fuc(a1-2)[GalNAc(a1-3)]Gal(b1-3)GalNAc(a1-3)[Fuc(a1-2)]Gal(b1-4)GlcNAc
# Outline: as §1
# [33] = target: Fuc(a1-2)[GalNAc(a1-3)]Gal(b1-3)GalNAc(b1-3)Gal(a1-4)Gal(b1-4)Glc
# Outline: as §1
# [34] = target: Fuc(a1-2)[GalNAc(a1-3)]Gal(b1-3)GlcNAc
# Outline: as §1
# [35] = target: Fuc(a1-2)[GalNAc(a1-3)]Gal(b1-3)GlcNAc(b1-2)Man(a1-3)[Fuc(a1-2)[GalNAc(a1-3)]Gal(b1-3)GlcNAc(b1-2)Man(a1-6)]Man(b1-4)GlcNAc(b1-4)GlcNAc
# Outline: as §1
# [36] = target: Fuc(a1-2)[GalNAc(a1-3)]Gal(b1-3)GlcNAc(b1-2)Man(a1-3)[Fuc(a1-2)[GalNAc(a1-3)]Gal(b1-3)GlcNAc(b1-2)Man(a1-6)]Man(b1-4)GlcNAc(b1-4)[Fuc(a1-6)]GlcNAc
# Outline: as §1
binder,measurement,setting,value
Als3-N (Candida albicans) (protein) KTITGVFNSFNSLTWSNAATYNYKGPGTPTWNAVLGWSLDGTSASPGDTFTLNMPCVFKFTTSQTSVDLTAHGVKYATCQFQAGEEFMTFSTLTCTVSNTLTPSIKALGTVTLPLAFNVGGTGSSVDLEDSKCFTAGTNTVTFNDGGKKISINVDFERSNVDPKGYLTDSRVIPSLNKVSTLFVAPQCANGYTSGTMGFANTYGDVQIDCSNIHVGITKGLNDWNYPVSSESFSYTKTCSSNGIFITYKNVPAGYRPFVDAYISATDVNSYTLSYANEYTCAGGYWQRAPFTLRWTGYRNSDAGSNGIVIVATTRTVTDSTTAVTTLPFDPNRDKTKTIEILKPIPTTTITTSYVGVTTSYLTKTAPIGETATVIVDIPYHTTTTVTSKWTGTITSTTTHTNPTDSIDTVIVQVP,glycan array binding signal (z-score),[1],-0.238
same,glycan array binding signal (z-score),[2],0.604
same,glycan array binding signal (z-score),[3],1.57
same,glycan array binding signal (z-score),[4],-0.301
same,glycan array binding signal (z-score),[5],-0.266
same,glycan array binding signal (z-score),[6],1.01
same,glycan array binding signal (z-score),[7],-0.282
same,glycan array binding signal (z-score),[8],-0.251
same,glycan array binding signal (z-score),[9],-0.218
same,glycan array binding signal (z-score),[10],0.105
same,glycan array binding signal (z-score),Fuc(a1-2)Gal6S(b1-4)Glc,-0.069
same,glycan array binding signal (z-score),[11],-0.036
same,glycan array binding signal (z-score),Fuc(a1-2)[Gal(a1-3)]Gal,-0.237
same,glycan array binding signal (z-score),[12],-0.211
same,glycan array binding signal (z-score),[13],-0.13
same,glycan array binding signal (z-score),[14],-0.265
same,glycan array binding signal (z-score),[15],-0.273
same,glycan array binding signal (z-score),[16],-0.309
same,glycan array binding signal (z-score),[17],-0.163
same,glycan array binding signal (z-score),[18],-0.279
same,glycan array binding signal (z-score),[19],-0.316
same,glycan array binding signal (z-score),[20],-0.009
same,glycan array binding signal (z-score),[21],-0.192
same,glycan array binding signal (z-score),[22],0.048
same,glycan array binding signal (z-score),[23],-0.357
same,glycan array binding signal (z-score),[24],-0.261
same,glycan array binding signal (z-score),[25],-0.13
same,glycan array binding signal (z-score),[26],-0.082
same,glycan array binding signal (z-score),[27],-0.292
same,glycan array binding signal (z-score),[28],-0.1
same,glycan array binding signal (z-score),[29],0.028
same,glycan array binding signal (z-score),[30],-0.286
same,glycan array binding signal (z-score),[31],-0.231
same,glycan array binding signal (z-score),[32],-0.255
same,glycan array binding signal (z-score),[33],-0.14
same,glycan array binding signal (z-score),[34],-0.104
same,glycan array binding signal (z-score),[35],-0.19
same,glycan array binding signal (z-score),[36],-0.194
